Experimental data: paper PMC12136788
The other results are listed elsewhere or left out.

T1: UNK ZnF1-3 (human, UniProt Q9C0B0 31-174)
T1 sequence: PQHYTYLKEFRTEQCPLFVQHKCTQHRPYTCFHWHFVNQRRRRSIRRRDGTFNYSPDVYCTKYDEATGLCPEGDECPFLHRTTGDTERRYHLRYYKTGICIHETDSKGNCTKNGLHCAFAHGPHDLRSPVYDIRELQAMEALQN

B1: 21897295_21898717_948_CDS_ENSG00000141447_ENST00000319481|human|control|control (ssRNA)
RNA: GGGAGUUCUACAGUCCGACGAUCCCUAUACCAUGAAAGGACUCCAUGCUCUAACACUACCCAGAAUAAUCUCCAGCCAAAAAAUCUUGAACUCUUCCAGAGAGGGCCCUCAUAUCGUUUCAAUGCUUUGUAGAUGACCUUAUUCAACAGAGGAUUGAGCAUCA
B2: chr14:62154062:62154063:-_ENSMUSG00000021930_ENSMUST00000100496|mus_mus|FALSE|FALSE (ssRNA)
RNA: GGGAGUUCUACAGUCCGACGAUCUUUUUUCAAAACCAGGUGGAGGAGUAUGAUAAAAUUCACUGAACUGGCAAUCCAGAAUUGCACUGUCGUCAACACUACAUCUCCCUCCUGAGGAAGGCUGUUUGCUGGCAGCCUGUUUUUCAACAGAGGAUUGAGCAUCA
B3: chr5:122268631:122268632:-_ENSMUSG00000042594_ENSMUST00000136960|mus_hu|FALSE|FALSE (ssRNA)
RNA: GGGAGUUCUACAGUCCGACGAUCAACCAGCUGAGCUGCUUUCACUCUGGAGAUGGGGCCGUGGAACCAGGGGUAGCAGGACAGGAAAUGGUCCGUCUUCUGGCAGGCCGGGUCCAGCAGCCCCCCAGGAGAAGCACCUUGGUUCAACAGAGGAUUGAGCAUCA
B4: 78798003_78798123_2598_CDS_ENSMUSG00000033088_ENSMUST00000109689|mouse|control|control (ssRNA)
RNA: GGGAGUUCUACAGUCCGACGAUCGCAGGGUGGCUGAGAGGACUCCAAAGAGGUCUGGGGAGCCCCUCGAGGUGCUGCGUGAAGAGGCGAUGAAGUCCUAGAGGCACUGGAAUGGCCAGGGUUAUGAGAGGAGGAGGAGGUGGUCAACAGAGGAUUGAGCAUCA
B5: chr5:80785125:80785126:-_ENSG00000145687_ENST00000509013|hu_mus|motif|central (ssRNA)
RNA: GGGAGUUCUACAGUCCGACGAUCGGCCGCCAGGGUACCGAGGCGACAUAAAAGGCUGAAAGAACCCUGGUGGCACGGGACCGGCUGGCAUGCCAUCUCCUGGGGGCAUGUUUCCUAGCACGGGGCUGGGAGCUGCUGCAGCACCAACAGAGGAUUGAGCAUCA
B6: chr17:57652765:57652766:+_ENSG00000108406_ENST00000251241|hu_hu|FALSE|FALSE (ssRNA)
RNA: GGGAGUUCUACAGUCCGACGAUCAUCAUAAUCAUAAUCAACAGACUCUGCCAUCUGAAAAAGUAACUCACAACUUUUUUCUAUUUCAAACUGGCCAGUCAGAAAAACCAAGAUGUCUCCAGCCAUUUCAUUCAAAUGGAUAUCCAACAGAGGAUUGAGCAUCA
B7: chr2:114697599:114697600:+_ENSG00000115091_ENST00000536059|hu_mus|FALSE|FALSE (ssRNA)
RNA: GGGAGUUCUACAGUCCGACGAUCGGACUGCUCAGGAGGGAUUCCUACUUCUCGGUCUCGCAGCAGUUGCUGAAUAAAAUAUGUUAUAUCUCUUCCUGCGAUUGGAAUGUGUUUAAUACAGCUGCCGAUAACAUAUCCUUCAGCCAACAGAGGAUUGAGCAUCA
B8: chr17:31789506:31789507:-_ENSMUSG00000061613_ENSMUST00000166526|mus_mus|motif|central (ssRNA)
RNA: GGGAGUUCUACAGUCCGACGAUCAGACUGGGAAGAGUUUUGAGGGUUACGGUAAAUGUUCAAGAGGGCAAUGGUCUGGCGGAAGGUUGGUUUAUUGUGCAACCGAGAACAUCUGUCUCCAUGACGACAUGCUCCGAUUUUGAACAACAGAGGAUUGAGCAUCA
B9: chr5:174939138:174939139:+_ENSG00000164466_ENST00000321442|hu_mus|motif|central (ssRNA)
RNA: GGGAGUUCUACAGUCCGACGAUCACCAACCUUCAGCUCCCUUUGUCUCAUCAGUGGGAUGUUAAUGCAGUUAGCAGCAGCGGCAGCAGCGAAGGGAACAAAACGUCCUAUCAGUGGGGAGACACGCUUGGUUAAGGCAUUGAGCAACAGAGGAUUGAGCAUCA
B10: chr17:65740002:65740003:+_ENSG00000130935_ENST00000581375|hu_hu|hu_hu_hu_mus_False|88_88 (ssRNA)
RNA: GGGAGUUCUACAGUCCGACGAUCAACAAAUCUUUCUUCCCUGGACGCAAGAGUUCAUUCAUAUUAAAAAAAAUAUAUAUCCAUCAAGUUAGGUGUGGUGGCCACACCUUUACUCCCAGCACUUUGGGAGGUGGAUCUCUGAGUCAACAGAGGAUUGAGCAUCA
B11: 19493532_19493652_4060_CDS_ENSG00000127481_ENST00000375254|human|control|control (ssRNA)
RNA: GGGAGUUCUACAGUCCGACGAUCAUUGGCCAGAAUGUUGUAACAACCAGUGAUCAGCUUCUCAUAAACACGAGCCAAGAACUCAUCAGACUCAGCAGGGCCCAAGAUGCGUUCCAGGGAGUUGCUACUGAUCUCGGCAACACUCAACAGAGGAUUGAGCAUCA
B12: chr8:117878989:117878990:-_ENSG00000164754_ENST00000297338|hu_hu|hu_hu_hu_mus_True|58_68 (ssRNA)
RNA: GGGAGUUCUACAGUCCGACGAUCCCAGAGGCCCUCGUUUACUGAGGACAAAAUGUGCGUAGAACAUUGUUCUGGCUGGCUAUGAAAUAAGAAGAAACCUGGAUCUCGGCGGGGAGCCGGGAGGGGUGGGUGGCCCGGGGAGGGCAACAGAGGAUUGAGCAUCA
B13: chr7:149068622:149068623:-_ENSMUSG00000025139_ENSMUST00000001950|mus_hu|mus_mus_mus_hu_False|18_88 (ssRNA)
RNA: GGGAGUUCUACAGUCCGACGAUCGUGAGGCCUCUGAGUGUGGCUUGUGCUCUGCAGUGGGUUAGAGUUGUUAAUAUCACGGAACAUACCAUCUAGAACGUUCCAGUCCCGCCUGACCAUCCACCCUCCAAUGGAGAAGAAAUCCAACAGAGGAUUGAGCAUCA
B14: chrX:161375010:161375011:-_ENSMUSG00000061778_ENSMUST00000112247|mus_mus|FALSE|FALSE (ssRNA)
RNA: GGGAGUUCUACAGUCCGACGAUCCAUCUGGAGGUGGCAAACUGAAACAGAAAAACCCACAUUAAGACAAAGCAUCACACUAGUGUCCCUUUAAGGUUUUCUUUCCUCGGCCGACUUCUUAAGGAGCUCCAUUACAUCACUCCUCAACAGAGGAUUGAGCAUCA

biological target: T1, UNK ZnF1-3; assay: nsRBNS (natural sequence RNA bind-n-seq); RBNS binding buffer (assumed for nsRBNS): 25 mM Tris pH 7.5, 150 mM KCl, 3 mM MgCl2, 0.01% Triton X-100, 500 ug/ml BSA, 20 U/ml SUPERase-In, 4 C; UNK is unkempt and MSI1 is Musashi-1; names of the RNAs are library labels; protein concentration not given here; high values mean tight binding

Row | Binder | binding signal [enrichment R]
1 | B1 | 1.3
2 | B2 | 0.605
3 | B3 | 0.8
4 | B4 | 2
5 | B5 | 0.698
6 | B6 | 0.963
7 | B7 | 0.791
8 | B8 | 1.22
9 | B9 | 1.95
10 | B10 | 0.993
11 | B11 | 0.689
12 | B12 | 1.84
13 | B13 | 0.787
14 | B14 | 1.18
